# Assay results as given in PMC7999658, “Characterization of P-Glycoprotein Inhibitors for Evaluating the Effect of P-Glycoprotein on the Intestinal Absorption of Drugs” (Pharmaceutics, 2021).
# Like-named read-outs stand apart in the source and are kept apart here.
# Key:
# BCRP [1] = target: T1, BCRP (Homo sapiens, UniProt Q9UNQ0); test: Inhibition of BCRP-mediated transport of mitoxantrone across Caco-2 cell monolayers
# T1 sequence (Q9UNQ0 1-655): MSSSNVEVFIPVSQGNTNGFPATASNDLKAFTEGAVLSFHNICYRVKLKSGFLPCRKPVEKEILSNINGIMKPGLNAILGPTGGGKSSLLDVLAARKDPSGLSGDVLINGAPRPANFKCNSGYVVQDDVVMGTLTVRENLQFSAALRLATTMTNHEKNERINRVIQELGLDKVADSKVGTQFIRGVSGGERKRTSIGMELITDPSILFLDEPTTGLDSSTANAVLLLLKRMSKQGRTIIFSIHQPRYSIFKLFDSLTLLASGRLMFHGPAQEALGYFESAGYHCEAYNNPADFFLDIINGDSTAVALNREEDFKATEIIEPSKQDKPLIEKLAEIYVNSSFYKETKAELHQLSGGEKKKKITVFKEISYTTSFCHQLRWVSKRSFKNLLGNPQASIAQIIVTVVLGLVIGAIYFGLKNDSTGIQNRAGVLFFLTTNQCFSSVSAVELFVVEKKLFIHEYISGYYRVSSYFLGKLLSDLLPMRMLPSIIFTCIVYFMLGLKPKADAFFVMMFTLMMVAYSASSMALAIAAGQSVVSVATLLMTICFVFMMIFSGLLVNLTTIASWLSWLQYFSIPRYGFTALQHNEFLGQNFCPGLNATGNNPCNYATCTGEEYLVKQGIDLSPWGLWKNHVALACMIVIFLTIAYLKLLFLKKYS
# BCRP [2] = target: T1, BCRP; parameters: host or cells: Caco-2; method as in PMID 32193356; conditions: Caco-2 monolayers; mitoxantrone; 50% decrease of Papp,BA; cited from earlier work
# P-gp = target: T2, P-gp (Homo sapiens, UniProt P08183); test: Inhibition of P-gp-mediated transport of paclitaxel across Caco-2 cell monolayers; type: cell-based; conditions: Caco-2 monolayers
# T2 construct: host or cells: Caco-2
# T2 sequence (P08183 whole entry): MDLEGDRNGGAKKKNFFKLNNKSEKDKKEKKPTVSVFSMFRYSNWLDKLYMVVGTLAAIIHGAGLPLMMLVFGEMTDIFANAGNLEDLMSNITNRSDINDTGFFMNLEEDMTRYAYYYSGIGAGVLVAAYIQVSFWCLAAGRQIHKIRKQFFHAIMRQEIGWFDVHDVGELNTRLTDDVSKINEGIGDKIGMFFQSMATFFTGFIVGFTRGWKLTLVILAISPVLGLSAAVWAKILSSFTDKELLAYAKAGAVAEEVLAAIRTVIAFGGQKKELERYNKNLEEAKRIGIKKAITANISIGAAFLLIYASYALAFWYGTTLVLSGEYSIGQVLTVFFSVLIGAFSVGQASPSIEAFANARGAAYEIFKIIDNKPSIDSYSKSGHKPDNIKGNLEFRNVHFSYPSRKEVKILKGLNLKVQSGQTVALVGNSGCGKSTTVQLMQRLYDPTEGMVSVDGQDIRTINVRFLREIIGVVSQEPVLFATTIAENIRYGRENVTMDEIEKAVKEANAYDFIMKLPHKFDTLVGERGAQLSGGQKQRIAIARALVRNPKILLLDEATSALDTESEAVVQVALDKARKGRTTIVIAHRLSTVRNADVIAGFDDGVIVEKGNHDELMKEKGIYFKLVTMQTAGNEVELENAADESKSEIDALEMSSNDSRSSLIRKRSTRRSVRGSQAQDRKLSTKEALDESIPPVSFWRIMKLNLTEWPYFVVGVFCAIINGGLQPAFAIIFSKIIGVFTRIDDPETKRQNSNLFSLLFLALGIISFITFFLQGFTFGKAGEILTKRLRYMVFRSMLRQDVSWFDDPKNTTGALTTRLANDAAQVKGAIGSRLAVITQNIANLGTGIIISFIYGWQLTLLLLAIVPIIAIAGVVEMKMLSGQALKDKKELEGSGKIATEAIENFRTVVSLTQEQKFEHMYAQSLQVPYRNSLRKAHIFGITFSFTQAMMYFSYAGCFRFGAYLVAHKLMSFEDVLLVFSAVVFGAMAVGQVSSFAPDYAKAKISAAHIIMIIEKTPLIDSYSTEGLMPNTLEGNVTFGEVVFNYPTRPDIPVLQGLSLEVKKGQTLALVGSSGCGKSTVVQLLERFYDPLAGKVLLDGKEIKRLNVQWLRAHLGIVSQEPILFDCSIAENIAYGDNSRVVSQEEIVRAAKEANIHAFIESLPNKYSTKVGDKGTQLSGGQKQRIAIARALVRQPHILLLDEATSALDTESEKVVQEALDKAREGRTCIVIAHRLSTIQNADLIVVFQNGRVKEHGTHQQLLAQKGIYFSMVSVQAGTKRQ
smiles,measurement,setting,value
"COc1ccc(C(=O)Nc2ccccc2C(=O)Nc2ccc(CCN3CCc4cc(OC)c(OC)cc4C3)cc2)cc1OC [WK-X-34, N-(2-(4-[2-(6,7-Dimethoxy-3,4-dihydro-1H-isochinolin-2-yl)-ethyl]phenylcarbamoyl)phenyl)-3,4-dimethoxybenzamide]",IC50,BCRP [1],328 ± 96 nM
same,"Hill coefficient, ER of mitoxantrone",BCRP [1]; Caco-2 monolayers,1.51 ± 0.41
same,IC50,BCRP [2],370 ± 38 nM
same,"Hill coefficient, ER of paclitaxel",P-gp,2.07 ± 1.22
same,IC50,"P-gp; 50% decrease of efflux ratio, read-out: IC50 on ER of paclitaxel",214 ± 113 nM
